The supplement of paper PMC11417369
± gives the standard deviation of the averaged measurements. The list shows a part of the results.

system: PfAP2-LT AP2 domain (GST-tagged); assay: gcPBM binding intensity (ln(normalized median fluorescence intensity)); higher = stronger DNA binding
Procedure, shortened: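 An Agilent 4 × 180k array of primer-extended double-stranded 36-bp intergenic genomic probes, with negative controls, was incubated for 1 h with GST-tagged P. falciparum DNA-binding domains expressed in E. coli. Alexa488 anti-GST antibody detected bound protein, scanned at 488 nm. Binding intensity is the highest Masliner-normalised natural-log median intensity across replicate spots of either probe orientation.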

Row | Sequence | gcPBM binding intensity (ln)
1 | AAATATGTTTCAAAAAGTACATTTCTATCTTTTTTT [XGTACX_site7178] | 8.56 ± 0.59
2 | TGATAAAATATTAAATTATTTCTTTATTTAAAGATT [CACACA_negctrl_site370] | 8.11 ± 0.35
3 | TGGTTATAATTGTACGCATGTAATTACATATTCTCT [TGCATGCA_site599] | 8.96 ± 0.45
4 | AATATGCCTCCCCAAAAAAAATATATATATATTTAT [GTGCAC_negctrl_site716] | 8.86 ± 0.15
5 | TATATTTAAATATATACACACATTATCATTTTCATA [CACACA_site1708] | 8.84 ± 0.33
6 | GAATTTTAAATAAACATATAAACAGAAAAAAAAAAA [TGCATGCA_negctrl_site149] | 8.44 ± 0.49
7 | TAGTTTTCTTAAAGATGTACTTATTAAAAATAAACT [XGTACX_site1001] | 8.18 ± 0.35
8 | AATGATTGATTTTATTGTACGTACTCGGAATATGGT [XGTACX_site4976] | 8.93 ± 0.43
9 | TATAGATAAATTATTTGTACTTATAAAATTATTATA [XGTACX_site2870] | 8.26 ± 0.42
10 | TACATAACTTTAATCACACACAAACAAACACATACA [CACACA_site6235] | 9.4 ± 0.28
11 | ATATAATATATATACAAACACACAATTGTGTCCACA [CACACA_site1748] | 9.29 ± 0.47
12 | AAAATACATGGACACACACACACACCGATATATATA [CACACA_site5885] | 10.4 ± 0.21
13 | AAATATACATATATATGTACATATAAATATATTTTA [XGTACX_site5266] | 8.79 ± 0.37
14 | TTATCTTACATATATCATTAAATCATATAACAAAAA [XGTACX_negctrl_site517] | 8.26 ± 0.4
15 | AACCTCATGGACATATGTACACATATACAATTATTT [XGTACX_site6533] | 9.04 ± 0.46
16 | CCTTTATAATTGGAAACACACATATAAAGTATATAT [CACACA_site3900] | 8.7 ± 0.35
17 | GTTATATTTAAAATAGTGCAATAAAAATAATAATAT | 8.73 ± 0.46
18 | CACAAATATACAAATACACACAAATATACGCATATA [CACACA_site2384] | 9.35 ± 0.39
19 | TTATGTATTTTAAATGGTTTTATTATAAAGTTTAAT [CACACA_negctrl_site1470] | 8.44 ± 0.45
20 | GGGAATTATGAAAAAAGTACAGAACAAAAGTAAAAG [XGTACX_site2861] | 8.95 ± 0.57
21 | ATATAGTAAAATTATACACACATGAATTTTCCCATG [CACACA_site1770] | 9.1 ± 0.43
22 | TTTTTTTTTTTTTTTTGTACTCATAAAAATATATTA [XGTACX_site3458] | 8.21 ± 0.52

Row | Sequence | gcPBM binding intensity (ln)
23 | TACAAAAATGAAAAAAGTACATATCATTTAATATAA [XGTACX_site8066] | 8.69 ± 0.49
24 | ATTACATGATATATCACACACACATATAAATATATA [CACACA_site2830] | 9.49 ± 0.26
25 | CATATATATATATATACACACACACCGTCCGTGTTA [CACACA_site8975] | 9.82 ± 0.2
26 | CACATATAGTTATATGCACACATCTTACACATATAT [CACACA_site3692] | 9.35 ± 0.37
27 | AAAATCACAAAACACACACACACAAAAAAAAAAAAA [CACACA_site1443] | 9.49 ± 0.53
28 | TATCTGTATTTATATACACACATATTCTTTTTACAC [CACACA_site4798] | 9.21 ± 0.42
29 | ATGGTGCAACATTATGCACACCGTTAAATAACTAAT [CACACA_site9280] | 9.02 ± 0.45
30 | AAAAAAGTAAAAAAAGCACACACGAAAAAAAATAAA [CACACA_site2233] | 9.3 ± 0.39
31 | GTTTGAAGAACTATAAATGTATAAATAAAAGTTTAG [TGCATGCA_negctrl_site222] | 8.46 ± 0.52
32 | CATGGGCAAATATTCTCACACATAAACATAAACATA [CACACA_site4597] | 8.86 ± 0.5
33 | GAATAAATAAATAAATGTACATATATATTTATTTAT [XGTACX_site243] | 8.75 ± 0.44
34 | ATATGTATTTATATATGTTTGAATTTTTTTTTTTTT [CACACA_negctrl_site5] | 8.46 ± 0.47
35 | GTTCGAAGTATAATTTGTACATATAAAATGGTTCCC [XGTACX_site382] | 8.73 ± 0.38
36 | ATTTGATCAACAAAACGTACACATATTTTCATGTGT [XGTACX_site447] | 9.71 ± 0.29
37 | AAAACAGTGACAACTCGTACTTATATTTTTTTTTGT [XGTACX_site4968] | 8.88 ± 0.41
38 | AGGCCCTATGTTGTTACACACATAGAATGATACATC [CACACA_site1266] | 9.06 ± 0.33
39 | TAAAATTTAAAATATACACACAAAAAGTTATTACAA [CACACA_site4080] | 8.68 ± 0.52
40 | ATTAAATAATAATAATGTACGTATTATATTAATACA [XGTACX_site5439] | 8.63 ± 0.43
41 | AAATTATTATGAAATGGAAAATGCATAAATTGTTTT [XGTACX_negctrl_site206] | 8.64 ± 0.42
42 | ATTCTTTACTCATAAAATTATATTATATAAACTTTT [XGTACX_negctrl_site554] | 8.45 ± 0.52
43 | CTCTTTAAAAATATGGGTACAAAAAAAAAAAAAATA [XGTACX_site6185] | 8.32 ± 0.6
44 | AATACGACAAACAAATGTACAAATAAATATTCGCGT [XGTACX_site6427] | 9.24 ± 0.3

Row | Sequence | gcPBM binding intensity (ln)
45 | TTTTCTTTTAATATTTTTAATAATTATATTTTGAAA [XGTACX_negctrl_site495] | 8.13 ± 0.33
46 | TGAGAAAATTAAAAGGTGCTCAGAAATTTTATATTA [GTGCAC_site9954] | 8.54 ± 0.54
47 | AAATTACTAATGTGCACACATACTAACGTTTAAATA [CACACA_site3572] | 9.26 ± 0.33
48 | AAAAATGTAAAGTGCGTGCACAAAATATTTGGAAAA | 9.07 ± 0.51
49 | TATATTTATTTATATGTATGCATGTCTGTATATGCT [TGCATGCA_site339] | 8.93 ± 0.47
50 | CAAAGATAAAATGATGCACACAAAAGGGTGTAATAT [CACACA_site8499] | 9.32 ± 0.37
51 | AAAGTACAATCATAATCACACGTGTCTATTATATAC [CACACA_site8103] | 9.37 ± 0.49
52 | ACATGGTTTACACGTGCATGTGGATGACTGGACATT [TGCATGCA_site640] | 9.08 ± 0.42
53 | AATATTTAATTCAACACACATACATATTTATTAAAA [CACACA_site2342] | 8.69 ± 0.45
54 | GCATAAATCAGACACACACACATATATAAATATGTA [CACACA_site7187] | 9.73 ± 0.3
55 | TAATATGAAAAGTGTACACACGCACAGACAAAAAAA [CACACA_site5594] | 9.34 ± 0.36
56 | ATTCATTTTAATATGGGTACATAAAAATAAAAAGAA [XGTACX_site2801] | 8.55 ± 0.54
57 | TATGATGATGAATAACGTACAAAAAAATTAATCACC [XGTACX_site6794] | 9.05 ± 0.43
58 | TACATTTTTATTTTTACACACATATTTATTTATATA [CACACA_site6609] | 8.99 ± 0.48
59 | TGTTTATTTTTTTTATGTACTTATTTTTTATTGCAT [XGTACX_site719] | 8.98 ± 0.45
60 | ATAAAATCTTAATCAACAAACAAACAAAAAAAAAAT [CACACA_negctrl_site1161] | 8.77 ± 0.48
61 | GATTTTCATATTTTTTGTACTTACATTTTTCTATAC [XGTACX_site6002] | 9.02 ± 0.45
62 | TATGTGATATATTTATCACACATTATATATATATAT [CACACA_site5103] | 8.97 ± 0.16
63 | GGCATACACAGACACACACACACACCCACATATATA [CACACA_site591] | 10.2 ± 0.28
64 | TAATTATCACATTGCACACACATTTCCTTTTACATT [CACACA_site3443] | 9.44 ± 0.28
65 | AATAAATAAATAAGTACACACATATATATATATATA [CACACA_site284] | 9.87 ± 0.29
66 | AAAAGAATGAAACATAATAAATTACATTAAAATAAT [CACACA_negctrl_site897] | 8.76 ± 0.62

Row | Sequence | gcPBM binding intensity (ln)
67 | ATTTTTTTATTTTGTGCACACACATAAAAATATATA [CACACA_site762] | 9.04 ± 0.49
68 | TCTATTTTTCTAATTTGTACATAGCTTTGAGTTAGT [XGTACX_site8977] | 8.8 ± 0.43
69 | AACTTATTAAGCCCTCCACATTTCTCTACTACAACT [CACACA_negctrl_site1552] | 8.88 ± 0.43
70 | AGATAAAATATATACACACACATAAATACGTACAAA [CACACA_site1086] | 9.51 ± 0.29
71 | AACTTCTTTTTTATAACACACAAAATATATATACAA [CACACA_site282] | 8.76 ± 0.35
72 | TTTTTTTTTTGTAATTGTACTTTTTTAATACTTCTA [XGTACX_site4195] | 8.55 ± 0.52
73 | TATACATATATATACACACACATATATATATATATA [CACACA_site4] | 9.8 ± 0.16
74 | TATATATATATATTCACACATAAATATATGCACCCA [CACACA_site4263] | 9.26 ± 0.24
75 | ATTTTTGTGACTAAGACATGCATAAGAGTAAAGAAA [TGCATGCA_site619] | 8.68 ± 0.43
76 | ACATATATTATATAACGTACATAACACTATTTCCTT [XGTACX_site6938] | 8.83 ± 0.48
77 | ATCTAAACCTTTTGAGCACACATATATATATATATA [CACACA_site8526] | 9.71 ± 0.19
78 | TAATATCATTTAGACACACACTCTTACAATCTGTAA [CACACA_site2590] | 9.02 ± 0.38
79 | AATCATTTATGGAAAGCATGCTAAATTAGAGTATAC [TGCATGCA_site172] | 8.87 ± 0.4
80 | ATGGGGAATAATGAATGTACACAAATAAAAAGTTGG [XGTACX_site4015] | 8.88 ± 0.67
81 | TAATTTTTTTAAAACACACAAATATGTAAATATGTA [CACACA_site7769] | 8.55 ± 0.41
82 | TAAAAATAAAAATAACGTACATACATACTTATATAT [XGTACX_site3745] | 8.61 ± 0.4
83 | TAAGTCGCCAAAAGGTGTACACATAATGCATTATCA [XGTACX_site8852] | 9.03 ± 0.36
84 | AGTATAGTTATAAATTGTACATATTATTTATTTTAT [XGTACX_site949] | 8.7 ± 0.39
85 | ATAGAACTGAATAAATCTATAAATAAATATATATAT [GTGCAC_negctrl_site604] | 8.62 ± 0.49
86 | TATTATAATGACTATAGTACATAATATTATTTATAT [XGTACX_site1977] | 8.62 ± 0.4
87 | CTCCACAAACAAATCGCACACCCAACCCAACATATA [CACACA_site2650] | 9.68 ± 0.34
88 | AATAAATATAAATACACACCCATATATATATATATA [CACACA_site5436] | 9.59 ± 0.4
